Measurements from ChEMBL document CHEMBL5606458, “ASAP - ZIKV NS2B-NS3 protease fluorescence single point” (2024).
Among all 2,700 compounds or so, about 160 (5.9%) showed an effect of 50% or more. The list shows a part of the results.

Molecular target: Nonstructural protein 3 (Zika virus) (UniProt A0A024AXB9)
[1] = PRVABC59, Concentration 15.0 uM, Number of replicates 1.0
[2] = PRVABC59, Concentration 10.0 uM, Number of replicates 1.0
[3] = PRVABC59, Concentration 50.0 uM, Number of replicates 1.0

Chain of UniProt A0A024AXB9 (A0A024AXB9 as listed by the source): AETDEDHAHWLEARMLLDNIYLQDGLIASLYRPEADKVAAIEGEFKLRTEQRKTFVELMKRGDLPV

C[C@@H](CCNC(=O)c1cc(Cl)ccc1NS(=O)(=O)c1ccc(Oc2ccccc2Cl)cc1)N1CCOCC1
inhibition [1]: 4.81%

O=C(c1cc(Cl)ccc1NS(=O)(=O)c1ccc(Oc2ccccc2Cl)cc1)N1CCN(c2ccccc2Cl)CC1
inhibition [1]: 6.58%

Cc1cc(N)c2cccc(Br)c2n1
inhibition (PRVABC59, Concentration 99.9 uM, Number of replicates 2.0, Standard deviation 11.691793041285315 %): -5.99%

O=Cc1ccc(N2CCC(C(=O)NCc3ccc(Br)cn3)CC2)cc1
inhibition [2]: 22.1%

CN(CCc1ccccc1F)C(=O)c1cc(Cl)ccc1NS(=O)(=O)c1ccc(Oc2ccccc2Cl)cc1
inhibition [1]: 27.9%

O=C(NCc1cccc([N+](=O)[O-])c1)c1cc(Cl)ccc1NS(=O)(=O)c1ccc(Oc2ccccc2Cl)cc1
inhibition [1]: 43.8%

CC(C)Nc1nc2cc(NCc3cccc(C(N)=O)c3)ccc2[nH]1
inhibition (PRVABC59, Concentration 49.5 uM, Number of replicates 2.0, Standard deviation 1.847825397474994 %): -6.97% | inhibition (PRVABC59, Concentration 99.01 uM, Number of replicates 2.0, Standard deviation 1.776755358467196 %): -9.42%

Cc1cc(C)nc(CCNC(=O)C2CCN(c3ccc(C=O)cc3)CC2)n1
inhibition [3]: 15.6%

CC(C)(CO)NC(=O)c1cc(Cl)cc(NC(=O)c2ccc(CO)s2)c1
inhibition (PRVABC59, Concentration 49.5 uM, Number of replicates 2.0, Standard deviation 3.0337727241311483 %): 1.34% | inhibition (PRVABC59, Concentration 99.01 uM, Number of replicates 2.0, Standard deviation 3.2258798614215776 %): 2.04% | inhibition (PRVABC59, Concentration 198.0 uM, Number of replicates 2.0, Standard deviation 3.5796614008083747 %): 2.59%

N#Cc1cccc(NC(=O)[C@@H](NC(=O)c2ccc(Oc3ccc(C(F)(F)F)cc3)cc2)c2ccc(OCc3ccccc3)cc2)c1
inhibition (PRVABC59, Concentration 49.5 uM, Number of replicates 2.0, Standard deviation 1.5222408241409437 %): -3.85% | inhibition (PRVABC59, Concentration 99.01 uM, Number of replicates 2.0, Standard deviation 0.6339358903678755 %): 1.37% | inhibition (PRVABC59, Concentration 198.0 uM, Number of replicates 2.0, Standard deviation 2.432405937390612 %): 0.989%

O=C(NCc1cc(Cl)cc(Cl)c1)c1cc(Cl)ccc1NS(=O)(=O)c1ccc(Oc2ccccc2Cl)cc1
inhibition [1]: 27.8%

O=C(O)c1cccc(NC(=O)c2ccncc2)c1
inhibition (PRVABC59, Concentration 49.5 uM, Number of replicates 2.0, Standard deviation 3.2025175998741853 %): -2.1% | inhibition (PRVABC59, Concentration 99.01 uM, Number of replicates 2.0, Standard deviation 1.8056969671368994 %): -0.387% | inhibition (PRVABC59, Concentration 198.0 uM, Number of replicates 2.0, Standard deviation 2.642129119196154 %): 3.46%

CC(C)(CNC(=O)C1CCN(c2ccc(C=O)cc2)CC1)c1cccc(Cl)c1
inhibition [3]: -1.58%

O=C(c1cc(Cl)ccc1NS(=O)(=O)c1ccc(Oc2ccccc2Cl)cc1)N1CC(OCc2ccccc2)C1
inhibition [1]: -2.94%

CCc1nc(CNC(=O)[C@]2(c3ccc(F)cc3)CCCNC2)n[nH]1
inhibition (PRVABC59, Concentration 49.5 uM, Number of replicates 2.0, Standard deviation 1.2409927756118981 %): -0.431% | inhibition (PRVABC59, Concentration 99.01 uM, Number of replicates 2.0, Standard deviation 1.3083535020923887 %): -0.79% | inhibition (PRVABC59, Concentration 198.0 uM, Number of replicates 2.0, Standard deviation 1.945690126836199 %): -1.8%

O=C(O)c1cccc(NC(=O)c2cccs2)c1
inhibition (PRVABC59, Concentration 49.5 uM, Number of replicates 2.0, Standard deviation 0.016604109219079045 %): 0.258% | inhibition (PRVABC59, Concentration 99.01 uM, Number of replicates 2.0, Standard deviation 0.9443586407123139 %): 3.27% | inhibition (PRVABC59, Concentration 198.0 uM, Number of replicates 2.0, Standard deviation 0.8281299393990333 %): 6.47%

O=C(Nc1ccc2c(c1)C(=O)NC2=O)c1cc(Cl)ccc1NS(=O)(=O)c1ccc(Oc2ccccc2Cl)cc1
inhibition [1]: 25.3%

CNC(=O)c1ccc2n1CCN(S(=O)(=O)c1cc(-c3ccccc3)no1)[C@@H]2C
inhibition (PRVABC59, Concentration 49.5 uM, Number of replicates 2.0, Standard deviation 0.4667368978079452 %): 4.35% | inhibition (PRVABC59, Concentration 99.01 uM, Number of replicates 2.0, Standard deviation 0.4323885649707189 %): 1.78% | inhibition (PRVABC59, Concentration 198.0 uM, Number of replicates 2.0, Standard deviation 1.0122742409901626 %): -4.74%

O=C(NCC1(c2ccncc2F)CCC1)[C@@]1(c2ccc(F)cc2)CCCNC1
inhibition (PRVABC59, Concentration 49.5 uM, Number of replicates 2.0, Standard deviation 0.41622446358173754 %): 0.26% | inhibition (PRVABC59, Concentration 99.01 uM, Number of replicates 2.0, Standard deviation 0.6101932219025366 %): 2.25% | inhibition (PRVABC59, Concentration 198.0 uM, Number of replicates 2.0, Standard deviation 0.24650191266214933 %): 3.53%

COc1cc(CNC(=O)c2cc(Cl)ccc2NS(=O)(=O)c2ccc(Oc3ccccc3Cl)cc2)cc(OC)c1
inhibition [1]: 28%

O=Cc1ccc(N2CCC(C(=O)NCc3cccc(-n4cccn4)c3)CC2)cc1
inhibition [2]: 24.1%

Cc1cc(CO)c2cccc(Cc3cccc(C(=O)N4CCC(C(=O)O)CC4)c3)c2n1
inhibition (PRVABC59, Concentration 49.95 uM, Number of replicates 2.0, Standard deviation 0.6921367263576601 %): -3.78% | inhibition (PRVABC59, Concentration 99.9 uM, Number of replicates 2.0, Standard deviation 0.04719115192807187 %): -2.12%

COc1cc(C(=O)O)nc(N2CCN(C(=O)OC(C)(C)C)CC2)n1
inhibition (PRVABC59, Concentration 49.5 uM, Number of replicates 2.0, Standard deviation 2.4331094631226677 %): -1.92% | inhibition (PRVABC59, Concentration 99.01 uM, Number of replicates 2.0, Standard deviation 1.8290127301736714 %): -0.266% | inhibition (PRVABC59, Concentration 198.0 uM, Number of replicates 2.0, Standard deviation 0.8591132678511498 %): 3.66%

CCCC[C@@H](CC)CN(C[C@@H](CC)CCCC)C(=O)c1cc(Cl)ccc1NS(=O)(=O)c1ccc(Oc2ccccc2Cl)cc1
inhibition [1]: 15.5%

CC(C)(C)c1cc(NC(=O)c2cc(Cl)ccc2NS(=O)(=O)c2ccc(Oc3ccccc3Cl)cc2)n(-c2ccccc2)n1
inhibition [1]: 28.4%

c1ccc(-n2cc(CN3CCC(c4c[nH]c5cccnc45)CC3)cn2)nc1
inhibition (PRVABC59, Concentration 49.5 uM, Number of replicates 2.0, Standard deviation 0.39150698592554617 %): 0.383% | inhibition (PRVABC59, Concentration 99.01 uM, Number of replicates 2.0, Standard deviation 1.6352946876495957 %): 4.21% | inhibition (PRVABC59, Concentration 198.0 uM, Number of replicates 2.0, Standard deviation 1.1112775253170408 %): 9.97%

O=C(NCc1cncc(Br)c1)c1cc(Cl)ccc1NS(=O)(=O)c1ccc(Oc2ccccc2Cl)cc1
inhibition [1]: 42.6%

Cc1cc(CO)c2cccc(Cc3cccc(NC(=O)[C@@H](N)CCN)c3)c2n1
inhibition (PRVABC59, Concentration 49.95 uM, Number of replicates 2.0, Standard deviation 2.8196733928978714 %): -9.34% | inhibition (PRVABC59, Concentration 99.9 uM, Number of replicates 2.0, Standard deviation 2.5244723140679306 %): 3.67%

O=C(NCCn1ncc2ccccc2c1=O)c1cc(Cl)ccc1NS(=O)(=O)c1ccc(Oc2ccccc2Cl)cc1
inhibition [1]: 21.4%

CN(C)CCNC(=O)c1ccc(N2CCNCC2)nc1
inhibition (PRVABC59, Concentration 49.5 uM, Number of replicates 2.0, Standard deviation 7.0436202668286345 %): -2.56% | inhibition (PRVABC59, Concentration 99.01 uM, Number of replicates 2.0, Standard deviation 7.410877958096317 %): 0.074% | inhibition (PRVABC59, Concentration 198.0 uM, Number of replicates 2.0, Standard deviation 5.611314242501571 %): 7.79%

COc1ccc(CNC(=O)c2cc(Cl)ccc2NS(=O)(=O)c2ccc(Oc3ccccc3Cl)cc2)c(Cl)c1
inhibition [1]: 29.1%

CCN(CC)C1CCN(C(=O)c2cc(Cl)ccc2NS(=O)(=O)c2ccc(Oc3ccccc3Cl)cc2)CC1
inhibition [1]: 7.01%

CC(=O)Nc1ccc(NC(=O)C2CCN(c3ccc(C=O)cc3)CC2)c(C(F)(F)F)c1
inhibition [3]: 25.8%

Cc1cnc(NC(=O)c2cc(Cl)ccc2NS(=O)(=O)c2ccc(Oc3ccccc3Cl)cc2)c([N+](=O)[O-])c1
inhibition [1]: 21.8%

CC(C)Nc1nc2cc(NC(=O)[C@@H](NC(=O)OC(C)(C)C)c3ccccc3)ccc2[nH]1
inhibition (PRVABC59, Concentration 49.5 uM, Number of replicates 2.0, Standard deviation 2.4721512163265067 %): -4.72% | inhibition (PRVABC59, Concentration 99.01 uM, Number of replicates 2.0, Standard deviation 1.6891710041010715 %): -5.09% | inhibition (PRVABC59, Concentration 198.0 uM, Number of replicates 2.0, Standard deviation 1.579871413270376 %): -4.79%

Cc1cc(C)n(CCCNC(=O)C2CCN(c3ccc(C=O)cc3)CC2)n1
inhibition [3]: 18%

COc1cccc(C(=O)N2CCN(C(=O)c3cc(Cl)ccc3NS(=O)(=O)c3ccc(Oc4ccccc4Cl)cc3)CC2)c1
inhibition [1]: 15.9%

CC(C)(CO)NC(=O)c1cc(Cl)cc(NC(=O)Cc2cccc(N3CCOCC3)c2)c1
inhibition (PRVABC59, Concentration 49.5 uM, Number of replicates 2.0, Standard deviation 3.0522593855592395 %): -2.52% | inhibition (PRVABC59, Concentration 99.01 uM, Number of replicates 2.0, Standard deviation 3.368926317951112 %): -0.793% | inhibition (PRVABC59, Concentration 198.0 uM, Number of replicates 2.0, Standard deviation 2.506775358140388 %): 0.389%

Cc1cnccc1NC(=O)c1cnn2cc[nH]c(=O)c12
inhibition (PRVABC59, Concentration 49.5 uM, Number of replicates 2.0, Standard deviation 3.1855058832148018 %): -2.33% | inhibition (PRVABC59, Concentration 99.01 uM, Number of replicates 2.0, Standard deviation 1.1475735667568987 %): -0.754% | inhibition (PRVABC59, Concentration 198.0 uM, Number of replicates 2.0, Standard deviation 1.9515946474314843 %): 2.12%

O=C(N[C@H]1CCC[C@@H]1OCc1ccccc1)c1cc(Cl)ccc1NS(=O)(=O)c1ccc(Oc2ccccc2Cl)cc1
inhibition [1]: 23.2%

CCn1ncc(Cc2cc(OC)nc(N3CCNCC3)n2)c1F
inhibition (PRVABC59, Concentration 49.5 uM, Number of replicates 2.0, Standard deviation 0.4929738167681589 %): -2.24% | inhibition (PRVABC59, Concentration 99.01 uM, Number of replicates 2.0, Standard deviation 1.24071987476779 %): -1.01% | inhibition (PRVABC59, Concentration 198.0 uM, Number of replicates 2.0, Standard deviation 1.039801955918316 %): 0.707%

Cc1cn(-c2cc(NC(=O)C3CCN(c4ccc(C=O)cc4)CC3)cc(C(F)(F)F)c2)cn1
inhibition [3]: 26.3%

NCc1ccc(C[C@H](NC(=O)c2ccccc2)C(=O)Nc2cccc(C(N)=O)c2)cc1
inhibition (PRVABC59, Concentration 49.5 uM, Number of replicates 2.0, Standard deviation 1.1625470591881177 %): 1.5% | inhibition (PRVABC59, Concentration 99.01 uM, Number of replicates 2.0, Standard deviation 0.3259107899415248 %): 6.8% | inhibition (PRVABC59, Concentration 198.0 uM, Number of replicates 2.0, Standard deviation 1.1645342830954064 %): 14.4%

O=C(c1cc(Cl)ccc1NS(=O)(=O)c1ccc(Oc2ccccc2Cl)cc1)N(Cc1ccc2c(c1)OCO2)C1CCCC1
inhibition [1]: 23.2%

O=Cc1ccc(N2CCC(C(=O)NCc3coc(-c4ccccc4)n3)CC2)cc1
inhibition [2]: 8.56%

O=C(c1cc(Cl)ccc1NS(=O)(=O)c1ccc(Oc2ccccc2Cl)cc1)N1CCC(O)(c2ccc(Cl)cc2)CC1
inhibition [1]: 26.1%

Cc1ccc(CNC(=O)C2CCN(c3ccc(C=O)cc3)CC2)c(F)c1F
inhibition [2]: 9.65%

CN(Cc1ccccc1NC(=O)c1cc(Cl)ccc1NS(=O)(=O)c1ccc(Oc2ccccc2Cl)cc1)C1CCCCC1
inhibition [1]: -4.47%

O=C(Nc1ccc(SC(F)(F)F)cc1)c1cc(Cl)ccc1NS(=O)(=O)c1ccc(Oc2ccccc2Cl)cc1
inhibition [1]: 45.3%

O=Cc1ccc(N2CCC(C(=O)Nc3c(Cl)cncc3Cl)CC2)cc1
inhibition [3]: 23%

OB1OCc2ccc(N3CC[C@@H](O)C3)cc21
inhibition (PRVABC59, Concentration 99.5 uM, Number of replicates 2.0, Standard deviation 3.8840673539872728 %): 2.1% | inhibition (PRVABC59, Concentration 198.0 uM, Number of replicates 2.0, Standard deviation 4.077392335002136 %): 10.3%
